# The whole screen tested about 310,000 compounds, of which about 2,200 (0.71%) showed an effect of 50% or more. The effect is printed as a negative number. The list shows a part of the results.
# Target: human ether-à-go-go-related gene (hERG) potassium channel (human, UniProt Q12809)
# Assay: primary screen, population patch clamp on CHO cells stably expressing hERG
# Chain of human ether-à-go-go-related gene (hERG) potassium channel (Q12809 whole entry, looked up): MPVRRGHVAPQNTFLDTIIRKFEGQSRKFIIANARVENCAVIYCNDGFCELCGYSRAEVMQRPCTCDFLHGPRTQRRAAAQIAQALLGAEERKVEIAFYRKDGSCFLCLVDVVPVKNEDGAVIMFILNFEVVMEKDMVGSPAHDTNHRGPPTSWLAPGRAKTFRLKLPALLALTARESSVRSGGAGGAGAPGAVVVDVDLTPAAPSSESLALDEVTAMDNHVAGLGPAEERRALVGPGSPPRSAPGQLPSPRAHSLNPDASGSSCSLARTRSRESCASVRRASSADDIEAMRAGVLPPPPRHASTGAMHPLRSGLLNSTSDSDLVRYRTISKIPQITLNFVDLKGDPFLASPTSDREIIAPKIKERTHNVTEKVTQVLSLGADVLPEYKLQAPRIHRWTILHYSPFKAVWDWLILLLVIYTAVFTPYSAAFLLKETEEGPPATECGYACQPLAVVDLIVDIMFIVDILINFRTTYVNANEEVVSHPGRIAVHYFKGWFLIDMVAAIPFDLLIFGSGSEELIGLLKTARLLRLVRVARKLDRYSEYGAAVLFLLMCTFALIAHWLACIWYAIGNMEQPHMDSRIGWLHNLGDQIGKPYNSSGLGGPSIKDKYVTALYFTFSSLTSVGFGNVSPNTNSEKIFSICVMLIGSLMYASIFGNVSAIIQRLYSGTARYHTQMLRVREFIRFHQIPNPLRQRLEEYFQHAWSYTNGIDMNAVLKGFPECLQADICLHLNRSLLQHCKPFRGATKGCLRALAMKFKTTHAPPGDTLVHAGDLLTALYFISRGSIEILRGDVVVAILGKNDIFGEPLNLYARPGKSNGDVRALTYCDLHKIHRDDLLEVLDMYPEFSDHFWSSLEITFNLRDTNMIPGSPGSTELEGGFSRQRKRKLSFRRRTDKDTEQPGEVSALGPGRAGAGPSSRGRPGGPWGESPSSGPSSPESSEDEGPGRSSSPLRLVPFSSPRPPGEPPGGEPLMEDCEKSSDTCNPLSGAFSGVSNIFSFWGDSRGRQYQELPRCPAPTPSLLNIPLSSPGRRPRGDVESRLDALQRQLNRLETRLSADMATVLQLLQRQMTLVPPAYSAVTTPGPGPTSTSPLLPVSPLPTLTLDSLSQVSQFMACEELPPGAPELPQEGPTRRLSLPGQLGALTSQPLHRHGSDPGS
row,SMILES,"hERG current change (%, negative = inhibition) at 1uM"
1,Cc1cc(O)c(CN2CCN(c3ccccc3)CC2)cc1C,4.47%
2,Cc1nc(NC(=O)CCc2ccccc2)ccc1Br,11.1%
3,CCOC(=O)c1c([N+](=O)[O-])c(C)[nH]c(=O)c1C#N,20.7%
4,CCCSc1nc(=O)n2cc(C)ccc2n1,-3.83%
5,O=C(Nc1ccncc1)c1cc(F)cc(F)c1,0.493%
6,O=C(NC(C(=O)NCCN1CCOCC1)C12CC3CC(CC(C3)C1)C2)C1CCCCC1 (stereo not shown),6.22%
7,Cc1cccc(CC(C)NC(=O)c2cc(COc3ccc(C)c(C)c3)on2)n1 (stereo not shown),13.2%
8,COc1ccc(OC)c(S(=O)(=O)CC(O)CS(=O)(=O)c2ccccc2)c1 (stereo not shown),9.24%
9,O=C(CSc1n[nH]c(-c2cccnc2)n1)Nc1ccc([N+](=O)[O-])cc1,8.42%
10,O=C(Cn1ccc(C(F)(F)F)n1)N/N=C/c1cccs1,10.7%
11,Cn1c(SCC(=O)N/N=C/c2cc([N+](=O)[O-])ccc2O)nnc1-c1ccccc1,10.3%
12,Cc1ccc2[nH]c(CN3CCN(C)C(CCO)C3)c(C)c2c1 (stereo not shown),4.47%
13,CN(CC(=O)Nc1ccccc1Cl)C(=O)COc1cccc2c1OC(C)(C)C2,7.48%
14,Cc1cc(OCC(=O)NC2CC2)c2c(C)c(C)c(=O)oc2c1,15.3%
15,C=CCN1C(=O)c2ccc(C(=O)N3CCN(S(=O)(=O)c4ccc(C(C)C)cc4)CC3)cc2C1=O,4.96%
16,O=C(Nc1ccccc1O)/C(=C\c1ccccc1)NC(=O)c1ccccc1,-0.376%
17,Cc1cc(=S)[nH]c(=S)[nH]1,1.2%
18,O=C(N/C(=C/c1ccc(Br)cc1)C(=O)N1CCCC1=O)c1ccco1,-11.1%
19,O=C(NCCc1ccc(Cl)cc1)c1cnc2n(c1=O)CCS2,4.37%
20,CSc1nnc(C)c(=O)n1COC(=O)COc1ccccc1C,11.3%
21,CCc1ccc(OCC(=O)Nc2ccc3[nH]ncc3c2)cc1,10.7%
22,CC1(C)CC(=O)N(CC(=O)N2CCN(c3ncccn3)CC2)c2ccccc2S1(=O)=O,-8.94%
23,Oc1ccc(N=Nc2ccc3c(c2)OCO3)c2ccccc12,13.2%

row,SMILES,"hERG current change (%, negative = inhibition) at 1uM"
1,CC(=O)c1ccc2noc(-c3ccc(F)cc3)c2c1,11.3%
2,Cc1ccc(NNC(=O)c2c(F)cccc2Cl)cc1C,8.08%
3,C[C@H](NC(=O)OC(C)(C)C)C(=O)N/N=C/c1cccc2nccnc12,3.49%
4,C=COCCn1c(C)c(C(C)=O)c2cc(O)ccc21,9.33%
5,C/C(=N\Nc1ccc2nncn2n1)c1ccc(Br)s1,14.7%
6,Cc1nn(Cc2cccc(C(=O)NC34CC5CC(CC(C5)C3)C4)c2)c(C)c1Br,1.8%
7,CN(c1ccc(C(=O)N2CCOCC2)cc1)S(=O)(=O)c1cccs1,18.3%
8,Cc1ccc(Oc2ccc(OCC(=O)NC(C)C(=O)O)cc2)cc1 (stereo not shown),-0.182%
9,NS(=O)(=O)c1ccc(NC(CNS(=O)(=O)c2ccccc2)c2ccccc2)cc1 (stereo not shown),11.1%
10,CCOc1ccc(NS(=O)(=O)c2ccc(-c3coc(C)n3)cc2)cc1,17.5%
11,NC(=O)C(C(=O)/C=C/c1ccc(Cl)cc1)=C1SCCS1,8.02%
12,Cc1ccc(C(=O)N2CC(C)OC(C)C2)cc1[N+](=O)[O-] (stereo not shown),10.2%
13,CCC(C)Oc1cccc(C(=O)Nc2ccccc2N2CCOCC2)c1 (stereo not shown),10.4%
14,O=c1[nH]c(=O)c2ncc(-c3ccc(Cl)cc3)nc2[nH]1,11%
15,CCCN(CCC)S(=O)(=O)c1cc2c3c(c1)CCN3C(=O)CC2,4.74%
16,Cc1cc(S(=O)(=O)NCCc2ccccc2)c(C)s1,-2.86%
17,O=C(CN1C(=O)NC2(CCCCCC2)C1=O)Nc1ccc2c(c1)CCC2,15.7%
18,CC1(C)Cc2c(sc(NC(=O)C(=O)N3CCCCC3)c2C(N)=O)CO1,21.1%
19,O=[N+]([O-])c1cccc(NC2=NCCC2)c1,11.3%
20,COc1ccc(CCNC(=S)Nc2cccc(C)c2)cc1,0.639%
21,Nc1nonc1N/N=C/c1c(O)ccc2ccccc12,-0.296%
22,O=S(=O)(NCc1ccc2c(c1)OCO2)c1ccc2c(c1)oc1ccccc12,18.5%
23,CC(CCN1CCC(n2nccc2NC(=O)c2ccccc2Cl)CC1)c1ccccc1 (stereo not shown),-85.1%

row,SMILES,"hERG current change (%, negative = inhibition) at 1uM"
1,COc1cc2[nH]c(C(=O)N3CCc4ccccc4C3)cc2c(OC)c1OC,13.8%
2,Cc1ccc2oc(=O)c(/C=C(\O)c3ccccc3)nc2c1,5.88%
3,O=C(COC(=O)c1ccc(Cl)s1)c1cc2ccccc2o1,-3.6%
4,O=C(OCC(=O)N1CCN(C(=O)c2ccco2)CC1)c1cc(-c2ccccc2)nc2ccccc12,-7.53%
5,COc1ccc(-n2c(C)nnc2SCC(=O)N2CCOCC2)cc1,14.6%
6,COc1ccccc1-c1c(C)nn2c(N)c(-c3ccc(Cl)cc3)cnc12,20.6%
7,Cc1ccc(Cl)cc1N1CCN(C(=O)c2ccc(CS(=O)Cc3ccc(Cl)cc3)o2)CC1 (stereo not shown),15.3%
8,CSc1nnc(-c2cccn(Cc3cccc(Cl)c3)c2=O)o1,4.48%
9,O=C(NC1CCCCC1)N1CCCC(c2nc(-c3cccs3)no2)C1 (stereo not shown),2.11%
10,COc1ccc(-n2cc(CN[C@H]3CCCCNC3=O)c(-c3cccc(F)c3)n2)cc1,-33%
11,Cc1ccc(NS(=O)(=O)c2c(C)[nH]c(C)c2C(=O)N2CCCCC2)c(Br)c1,4.64%
12,COC(=O)C1=C(C)N(Cc2ccco2)C(=O)N[C@@H]1c1ccco1,18.9%
13,Cn1c(=O)n(CC(=O)O)c(=O)c2c1nc1n2CCCN1Cc1ccccc1,11.2%
14,O=C(NCc1ccccc1)c1cc(S(=O)(=O)N2CCC3(CC2)OCCO3)ccc1F,8.59%
15,CC(=O)c1ccccc1NC(=O)CC1(CC(=O)O)CCCCC1,11.1%
16,COCCNC(=O)C(OC(=O)c1cc2oc(C)cc2n1C)C(C)C (stereo not shown),7.23%
17,CCOC(=O)c1ccc(-c2ccc(/C=N/NC(=O)Cc3nnc(N)s3)o2)cc1,12.3%
18,CNCCCOc1ccc(Cl)cc1C(C)(C)C.O=C(O)C(=O)O,9.81%
19,Cc1ccc(S(=O)(=O)NCCNC(=O)c2ccc(C)nc2)cc1,-27.8%
20,COc1ccc(/C=C(/NC(=O)/C=C/c2ccccc2)C(=O)NCCCCCC(=O)O)cc1,8.36%
21,CCOc1ccc(OCCC(=O)OCC(=O)NC2CC2)cc1,6.6%
22,CNc1nc(N)c([N+](=O)[O-])c(NC2CCCCC2)n1,11.9%
23,CC(NC(=O)C(=O)N1CCOCC1)C(c1cccs1)N1CCN(c2ccccc2)CC1 (stereo not shown),7.19%

row,SMILES,"hERG current change (%, negative = inhibition) at 1uM"
1,CC12CC3CC(C)(C1)CC(C(=O)N1CCCC1)(C3)C2,7.43%
2,Cc1ccc(Cn2ccc(=O)c(OCc3ccccc3)c2C)cc1,8.25%
3,COc1ccccc1/C=N/NC(=O)CNC(=O)c1ccc(S(=O)(=O)N2CCCC2)cc1,11.5%
4,CCOC(=O)c1cnn(-c2ccccc2)c1-c1ccncc1,13%
5,CCc1ccc(C(=O)COC(=O)c2cccc(N3C(=O)c4c(C)nc5ccccc5c4C3=O)c2)cc1,-5%
6,CC(OC(=O)c1ccccc1Nc1ccc(SC(F)F)cc1)C(N)=O (stereo not shown),0.263%
7,COc1ccc(CN(Cc2ccc(C(=O)O)cc2)C(=S)Nc2ccccc2C)cc1OC,12.6%
8,Cc1cc2ccccc2cc(C)c1=O,11.4%
9,CC(C)OCCCN(C)C1CCN(S(=O)(=O)c2csc(C(N)=O)c2)CC1,19.3%
10,CC1=CS/C(=C(/C#N)C(=O)N2CCCCC2)N1c1ccccc1,13.5%
11,Cc1cc(N2CCc3ccccc32)n2ncnc2n1,3.44%
12,CCC1=[N+](C)c2cccc3cccc(c23)N1C.[I-],15.6%
13,CC1CCCCN1C(=O)CSc1nc(C2CC2)nc2c1cnn2-c1ccccc1 (stereo not shown),18.7%
14,Cc1cccc(C)c1NC(=S)NN(Cc1ccccc1)c1ccccc1,10.3%
15,CCCS(=O)(=O)Nc1c(C(=O)O)[nH]c2ccc(OC)cc12,9.84%
16,CCOC(=O)c1c(/N=C/N(C)C)sc(C=O)c1-c1ccccc1,7.4%
17,O=C(Nc1ccc(Cl)cc1)C1CC2CCCC(C1)C2=O (stereo not shown),-1.25%
18,Nc1c(C=C2C=CC(=O)C=C2)c(=O)nc2sc(CC(=O)N3CCCCC3)nn12,21%
19,CCN1CCCC1CNc1ncnc2c1[nH]c1ccc(Cl)cc12 (stereo not shown),-85.5%
20,CCOc1cc(OCC)cc(C(=O)O)c1,-3.36%
21,COc1ccc(/C=N/n2c(N)nc(-c3ccccc3)c2-c2ccccc2)cc1,11.9%
22,CCCOc1ccc(C2C(C(=O)c3ccc(C)o3)=C(O)C(=O)N2CCCn2ccnc2)cc1 (stereo not shown),0.213%

# From publication PMC4336329 (PLoS ONE, 2015)
